Test results taken from PubChem BioAssay AID624417 (National Center for Advancing Translational Sciences (NCATS), 2012).
Among all 410,000 compounds or so, about 6,400 (1.6%) were called active. This list was built around the results that the source calls inconclusive (neither active nor inactive); the mix of calls is not that of the screen. The call rests on the fitted dose curve; in most records, active means well fitted inhibition curve with a large enough effect; inconclusive means small, poorly fitted or top-dose-only effect; inactive means no such curve, though single readings can be large or run the other way. Potencies of inconclusive entries are left out as doubtful fits.

target: Glucagon-like peptide 1 receptor (Homo sapiens) (UniProt P43220); assay: qHTS of GLP-1 Receptor Inverse Agonists (Inhibition Mode); details: HEK293 GLP-1R CRE-luciferase, luminescence, 24 h, GLP-1R form is constitutively active; activity change, negative = inhibition: at 38.3 µM (top of the series) unless noted; further: nearly all actives have a fitted effect of over 55% in size
Outline: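 Inverse agonists were sought by their lowering of basal cAMP reporter luciferase output in HEK293 cells stably carrying constitutively active human GLP-1R, after 24 h compound treatment.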
On the % scale 0 is the no-effect control and ±100 the full control effect; potency means the concentration at half of the fitted maximal effect; tags describe the fitted curve by direction and shape.

UniProt P43220, sequence (P43220 whole entry, looked up): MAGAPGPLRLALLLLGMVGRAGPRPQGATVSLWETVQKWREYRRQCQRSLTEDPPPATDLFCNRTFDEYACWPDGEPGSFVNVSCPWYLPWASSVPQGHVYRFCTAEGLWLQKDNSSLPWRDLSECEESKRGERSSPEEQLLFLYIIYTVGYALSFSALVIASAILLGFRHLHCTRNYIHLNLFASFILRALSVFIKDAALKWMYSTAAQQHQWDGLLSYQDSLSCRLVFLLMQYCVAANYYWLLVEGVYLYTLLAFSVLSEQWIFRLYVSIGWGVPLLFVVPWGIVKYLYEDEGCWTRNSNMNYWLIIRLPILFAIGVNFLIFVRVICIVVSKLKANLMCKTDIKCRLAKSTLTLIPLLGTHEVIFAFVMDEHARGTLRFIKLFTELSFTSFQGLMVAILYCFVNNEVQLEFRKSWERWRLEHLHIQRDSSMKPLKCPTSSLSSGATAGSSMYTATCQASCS

Row | SMILES | Potency | activity change, negative = inhibition
1 | O=C(NC1CCCCC1)c1ccc(COc2ccccc2)o1 | inconclusive [inhibitor, partial curve, poor fit] | –
2 | O=C(CCSCc1ccccc1Cl)NCc1ccc(F)cc1Cl | inconclusive [inhibitor, single point] | –
3 | COc1ccccc1N1CCN(C(=O)c2c(C)oc3ncn(C)c(=O)c23)CC1 | inactive | –
4 | COc1cc2c(cc1OC)C(=O)N1[C@H]3c4cc(C)ccc4OC[C@@H]3[C@H](c3ccccc3)[C@]1(C)C(=O)N2 | inconclusive [inhibitor, single point] | –
5 | Cc1ccc2c(CC(=O)OC(C)C(=O)NCc3ccc4c(c3)OCO4)coc2c1 (stereo unspecified) | inconclusive [inhibitor, single point] | –
6 | O=C(c1ccccc1)N1CCCCC(Sc2nnnn2-c2ccccc2)C1=O (stereo unspecified) | inactive | –
7 | C[C@@H](C(=O)NCCc1c[nH]c2ccccc12)[C@H]1C[C@]1(C)[C@H](NC(=O)OCc1ccccc1)c1ccccc1 | inconclusive [inhibitor, partial curve, poor fit] | –
8 | CC(=O)N(C)c1ccc(NC(=O)Nc2ccc(C)cc2)cc1 | inactive | –
9 | Cc1nnnn1/C(=C\c1ccccc1)C(=O)OCC(=O)Nc1cccc(S(=O)(=O)N(C)C)c1 | inconclusive [inhibitor, single point] | –
10 | CCN(CC)CCCNC(=O)Cc1csc2nc(-c3ccc(Cl)cc3)cn12 | inconclusive [inhibitor, partial curve, poor fit] | –
11 | CC1CCCN(CCCNS(=O)(=O)c2ccc3c(c2)CCN3C(=O)C2CC2)C1 (stereo unspecified) | inconclusive [inhibitor, full curve, poor fit] | –
12 | Cc1ccc(S(=O)(=O)N2CCCCCC2)cc1[N+](=O)[O-] | inconclusive [inhibitor, single point] | –
13 | C=C(C)CN(CC)C(=O)CSc1nc(O)cc(=O)n1C1CCCC1 | inconclusive [inhibitor, partial curve, poor fit] | –
14 | Cc1cc2cc(CNS(=O)(=O)c3ccc4ccccc4c3)ccc2n1C | inconclusive [inhibitor, single point] | –
15 | CC(C)c1ccc(COc2ccc(C(=O)N3CCOCC3)cc2)cc1 | inconclusive [inhibitor, partial curve, poor fit] | –
16 | O=S(=O)(NCc1nc2cccnc2n1Cc1ccccc1Cl)c1ccc2c(c1)CCCC2 | inconclusive [inhibitor, single point] | –
17 | Cc1cc(C)c(C(=O)c2ccc(C(=O)N(C(C)C)C(C)C)cc2)c(C)c1 | inconclusive [inhibitor, single point] | –
18 | CCOc1ccc(NS(=O)(=O)c2ccc3[nH]c4c(c3c2)CCCCC4)cc1 | inconclusive [inhibitor, single point] | –
19 | CCOC(=O)c1ccc(NC(=O)c2ccccc2N(C)S(=O)(=O)c2ccccc2)cc1 | inconclusive [inhibitor, full curve] | –
20 | Cc1cc(NCc2ccccc2)nc(-c2ccccc2O)n1 | inconclusive [inhibitor, single point] | –
21 | O=C(CCn1cccn1)Nc1ccc(Br)cc1F | inactive | –
22 | Fc1ccc(-c2nnn(Cc3ccccc3Cl)n2)cc1 | – | inconclusive: -57.6% [inhibitor]

Row | SMILES | Potency | activity change, negative = inhibition
23 | Cc1nc(C/C(=N\Nc2ccccc2)c2ccc(O)cc2O)cs1 | inconclusive [inhibitor, partial curve, poor fit] | –
24 | CC(C)c1cc(C(=O)OCC(=O)N2CCN(C(=O)c3ccco3)CC2)c(O)c(C(C)C)c1 | inconclusive [inhibitor, partial curve] | –
25 | CCc1nccn1CCC(=O)N1CCCC(Nc2ccc(C(C)C)cc2)C1 (stereo unspecified) | inconclusive [inhibitor, full curve] | –
26 | COC(=O)c1cnc2c(C(F)(F)F)cccc2c1OC | inactive | –
27 | COc1ccc(CNC(=O)c2ccc3c(c2)N(Cc2c(F)cccc2Cl)C(=O)CS3)cc1 | inconclusive [inhibitor, single point] | –
28 | O[C@H]1C[C@H](c2ccc(Cl)cc2)N(CC2CCCCC2)C[C@@H]1n1cc(C2CC2)nn1 | active: 10 µM | –
29 | COC(=O)c1c(C)oc(C)c1S(=O)(=O)N(Cc1ccccc1)C(C)C | inconclusive [inhibitor, single point] | –
30 | COc1cc(OC)c(N(C)S(=O)(=O)c2cccc(C(=O)OCC(=O)c3c[nH]c4ccccc34)c2)cc1Cl | inconclusive [inhibitor, single point] | –
31 | CCN(CC)CCN(C(=O)c1cc2ccccc2cc1OC)c1nc2ccc(F)cc2s1 | active: 5.01 µM | –
32 | CC(C)(C)c1ccc(/C=C(\C#N)C(=O)NC2CC2)cc1 | inconclusive [inhibitor, single point] | –
33 | CC(CCc1ccccc1)NC(=O)Cn1c(=O)nc(-c2ccccc2)c2ccccc21 (stereo unspecified) | inactive | –
34 | COc1ccc(NC(=S)NC(NC(=O)c2ccc(Cl)cc2Cl)C(Cl)(Cl)Cl)c([N+](=O)[O-])c1 (stereo unspecified) | active: 10 µM | –
35 | Cc1cc(C)c(S(=O)(=O)NCC(c2ccc(N(C)C)cc2)N2CCOCC2)c(C)c1 (stereo unspecified) | inactive | –
36 | CCc1nn2c(=O)c(S(=O)(=O)Nc3ccc(Cl)cc3)c(C)nc2s1 | inactive | –
37 | Cc1ccccc1Nc1c(-c2cccnc2)nc2ccc(Cl)cn12 | inconclusive [inhibitor, single point] | –
38 | Cc1cc(-c2ccc(C(C)C)c(S(=O)(=O)N3CCN(c4ccccn4)CC3)c2)on1 | inconclusive [inhibitor, full curve] | –
39 | COc1ccc(OC)c(NC(=O)CCNS(=O)(=O)c2cc(Br)cnc2N)c1 | inconclusive [inhibitor, single point] | –
40 | CCCCCCn1c(N2CCCC2)nc2c1c(=O)n(C)c(=O)n2C | inconclusive [inhibitor, single point] | –
41 | COc1cc([N+](=O)[O-])cc(/C=N\NC(=O)C2COc3ccccc3O2)c1O (stereo unspecified) | inconclusive [inhibitor, single point] | –
42 | CCCCN(CCCC)c1ncnc2nc[nH]c12 | active: 4.47 µM | –
43 | COc1ccc(-c2cn(CC3CCCCC3)nn2)cc1 | inactive | –
44 | COCC(C)NC(=O)c1cccc(Cl)c1 (stereo unspecified) | inconclusive [inhibitor, partial curve, poor fit] | –

Row | SMILES | Potency | activity change, negative = inhibition
45 | CC(C)(C)c1csc(N/N=C/c2ccc(O)cc2)n1 | inconclusive [inhibitor, single point] | –
46 | O=c1c2ccccc2c(C=Nc2cccc(O)c2)c(O)n1-c1ccc2c(c1)OCO2 | inconclusive [inhibitor, partial curve, poor fit] | –
47 | CC(C)(C)OC(=O)N(CCc1ccccc1)Cc1cccc(OCc2cccc(NC(=O)C3CCCC3)c2)c1 | active: 10 µM | –
48 | CCCCN(CCCNC(=O)c1cc(Nc2ccc(OC)c(OC)c2)nc2ccccc12)c1ccccc1 | inconclusive [inhibitor, partial curve, poor fit] | –
49 | COc1ccc(CNC(=O)C[C@H]2C(=O)N(Cc3ccccc3)C[C@@H]2Cc2ccccc2)cc1 | inconclusive [inhibitor, partial curve, poor fit] | –
50 | CCN(CC)S(=O)(=O)c1ccc(C(=O)Nc2cc3oc4ccccc4c3cc2OC)cc1 | inactive | –
51 | O=C1Nc2ccccc2C12OCC1(CO2)COC2(OC1)C(=O)Nc1ccccc12 (stereo unspecified) | inconclusive [inhibitor, partial curve] | –
52 | COc1cc(/C=C2/C(=O)NN(c3ccc(Cl)cc3)C2=O)ccc1OC(=O)c1ccco1 | inconclusive [inhibitor, full curve] | –
53 | O=C1N(O)C2(C=CCCC2)/C(=N\O)C12CCCCC2 (stereo unspecified) | inconclusive [inhibitor, single point] | –
54 | CC(C)Sc1nsc2nc(=O)c(/C=C3\C=Nc4ccccc43)c(N)n12 | inconclusive [inhibitor, partial curve, poor fit] | –
55 | Oc1ccc(C=NNC(=S)Nc2ccc(F)cc2)c(O)c1 | inactive | –
56 | COc1ccc(C(=O)N2CCN(c3ccccn3)CC2)cc1 | inactive | –
57 | COC(=O)c1cc(Br)cn1S(=O)(=O)c1ccccc1 | inconclusive [inhibitor, single point] | –
58 | CCCNC(=S)N1CCC(C(=O)c2ccc(Cl)cc2)CC1 | inconclusive [inhibitor, partial curve, poor fit] | –
59 | CCOc1ccc(/C=C/C2=Cc3c(sc(NC(=O)CSc4n[nH]c(N)n4)c3C#N)C(C)(C)C2)cc1 | inconclusive [inhibitor, single point] | –
60 | O=C(/C=C/c1cccs1)Nc1ccncc1 | inactive | –
61 | O=C(NCCCN1CCOCC1)c1ccc2c(c1)N(Cc1cccc(Cl)c1)C(=O)c1ccccc1S2 | inactive | –
62 | Cc1csc(SCC(=O)Nc2cc([N+](=O)[O-])ccc2F)n1 | inconclusive [inhibitor, single point] | –
63 | COc1cccc(NC(=S)NN=C2CCC(C(C)(C)C)CC2)c1 (stereo unspecified) | inconclusive [inhibitor, single point] | –
64 | CCN1CCN(C(=O)C2CCN(Cc3cc(Cl)ccc3O)CC2)CC1 | inconclusive [inhibitor, single point] | –
65 | CCC(=O)N1CCN(c2nc(-c3ccccc3)c3c(c2C#N)CCCC3)CC1 | inconclusive [inhibitor, single point] | –
66 | O=C(OCC(=O)c1c[nH]c2ccccc12)c1cc(Br)ccc1O | inconclusive [inhibitor, single point] | –
